Test results taken from PMC3817341 (British Journal of Cancer, 2013).

B1: myc-p21^T145E (natural protein)
chain: not shown
B2: myc-p21^T145E/S146D (natural protein)
chain: not shown

Target: proliferating cell nuclear antigen (human (endogenous in A2780), UniProt P12004)
Assay: cell-based or functional assay

Sequence of UniProt P12004 (P12004 whole entry): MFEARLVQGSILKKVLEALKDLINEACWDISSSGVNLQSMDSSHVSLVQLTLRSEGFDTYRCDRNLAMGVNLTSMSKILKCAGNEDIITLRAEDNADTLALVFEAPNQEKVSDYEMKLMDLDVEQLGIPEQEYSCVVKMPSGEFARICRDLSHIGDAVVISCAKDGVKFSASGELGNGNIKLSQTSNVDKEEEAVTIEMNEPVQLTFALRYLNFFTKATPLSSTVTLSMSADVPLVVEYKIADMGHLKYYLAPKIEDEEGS

| Binder | half-life of myc-p21 in Cdk2 immunoprecipitates after cycloheximide [min] | half-life of myc-p21 in crude lysates of A2780 cells after cycloheximide [min] |
| --- | --- | --- |
| B1 | 30 | ~30 |
| B2 | 60 | ~30 |
